# Source: the supplement of paper PMC8728848
# The list shows a part of the results.
# Legend:
# Experiment in all cases: glycan array binding signal (z-score within array); higher = stronger binding
# Details in all cases: glycan notation: IUPAC condensed, linker removed
# [1] = biological target: GlcNAc(b1-3)Gal(b1-3)GalNAc
# Procedure, shortened: (§1)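 Glycan array data came from 3228 arrays in the Consortium for Functional Glycomics database, and only arrays with an available protein sequence were kept. Glycan names were put into IUPAC-condensed notation, and columns mapping to the same glycan were averaged. The binding signal is a within-array Z-score, averaged across arrays of one protein sequence run at different concentrations or buffers and across linkers. A negative Z-score can be read as non-binding.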
# GlcNAc(b1-3)Gal(b1-4)Glc = biological target: GlcNAc(b1-3)Gal(b1-4)Glc
# Procedure, shortened: as §1
# [2] = biological target: GlcNAc(b1-3)Gal(b1-4)GlcNAc
# Procedure, shortened: as §1
# [3] = biological target: GlcNAc(b1-3)Gal(b1-4)GlcNAc(b1-2)Man(a1-3)[GlcNAc(b1-3)Gal(b1-4)GlcNAc(b1-2)Man(a1-6)]Man(b1-4)GlcNAc(b1-4)GlcNAc
# Procedure, shortened: as §1
# [4] = biological target: GlcNAc(b1-3)Gal(b1-4)GlcNAc(b1-2)Man(a1-3)[GlcNAc(b1-3)Gal(b1-4)GlcNAc(b1-2)Man(a1-6)]Man(b1-4)GlcNAc(b1-4)[Fuc(a1-6)]GlcNAc
# Procedure, shortened: as §1
# [5] = biological target: GlcNAc(b1-3)Gal(b1-4)GlcNAc(b1-2)[GlcNAc(b1-3)Gal(b1-4)GlcNAc(b1-6)]Man(a1-6)[GlcNAc(b1-3)Gal(b1-4)GlcNAc(b1-2)Man(a1-3)]Man(b1-4)GlcNAc(b1-4)GlcNAc
# Procedure, shortened: as §1
# [6] = biological target: GlcNAc(b1-3)Gal(b1-4)GlcNAc(b1-3)Gal(b1-4)GlcNAc
# Procedure, shortened: as §1
# [7] = biological target: GlcNAc(b1-3)Gal(b1-4)GlcNAc(b1-3)Gal(b1-4)GlcNAc(b1-2)Man(a1-3)[GlcNAc(b1-3)Gal(b1-4)GlcNAc(b1-3)Gal(b1-4)GlcNAc(b1-2)Man(a1-6)]Man(b1-4)GlcNAc(b1-4)GlcNAc
# Procedure, shortened: as §1
# [8] = biological target: GlcNAc(b1-3)Gal(b1-4)GlcNAc(b1-3)Gal(b1-4)GlcNAc(b1-2)Man(a1-3)[GlcNAc(b1-3)Gal(b1-4)GlcNAc(b1-3)Gal(b1-4)GlcNAc(b1-2)Man(a1-6)]Man(b1-4)GlcNAc(b1-4)[Fuc(a1-6)]GlcNAc
# Procedure, shortened: as §1
# [9] = biological target: GlcNAc(b1-3)Gal(b1-4)GlcNAc(b1-3)Gal(b1-4)GlcNAc(b1-2)[GlcNAc(b1-3)Gal(b1-4)GlcNAc(b1-3)Gal(b1-4)GlcNAc(b1-6)]Man(a1-6)[GlcNAc(b1-3)Gal(b1-4)GlcNAc(b1-3)Gal(b1-4)GlcNAc(b1-2)Man(a1-3)]Man(b1-4)GlcNAc(b1-4)[Fuc(a1-6)]GlcNAc
# Procedure, shortened: as §1
# [10] = biological target: GlcNAc(b1-3)Gal(b1-4)GlcNAc(b1-3)Gal(b1-4)GlcNAc(b1-3)Gal(b1-4)GlcNAc(b1-2)Man(a1-3)[GlcNAc(b1-3)Gal(b1-4)GlcNAc(b1-3)Gal(b1-4)GlcNAc(b1-3)Gal(b1-4)GlcNAc(b1-2)Man(a1-6)]Man(b1-4)GlcNAc(b1-4)GlcNAc
# Procedure, shortened: as §1
# [11] = biological target: GlcNAc(b1-3)Gal(b1-4)GlcNAc(b1-3)Gal(b1-4)GlcNAc(b1-3)Gal(b1-4)GlcNAc(b1-2)Man(a1-3)[GlcNAc(b1-3)Gal(b1-4)GlcNAc(b1-3)Gal(b1-4)GlcNAc(b1-3)Gal(b1-4)GlcNAc(b1-2)Man(a1-6)]Man(b1-4)GlcNAc(b1-4)[Fuc(a1-6)]GlcNAc
# Procedure, shortened: as §1
# [12] = biological target: GlcNAc(b1-3)Gal(b1-4)GlcNAc(b1-3)Gal(b1-4)GlcNAc(b1-3)Gal(b1-4)GlcNAc(b1-2)[GlcNAc(b1-3)Gal(b1-4)GlcNAc(b1-3)Gal(b1-4)GlcNAc(b1-3)Gal(b1-4)GlcNAc(b1-6)]Man(a1-6)[GlcNAc(b1-3)Gal(b1-4)GlcNAc(b1-3)Gal(b1-4)GlcNAc(b1-3)Gal(b1-4)GlcNAc(b1-2)Man(a1-3)]Man(b1-4)GlcNAc(b1-4)[Fuc(a1-6)]GlcNAc
# Procedure, shortened: as §1
# [13] = biological target: GlcNAc(b1-3)Gal(b1-4)GlcNAc(b1-3)Gal(b1-4)GlcNAc(b1-3)Gal(b1-4)GlcNAc(b1-3)Gal(b1-4)GlcNAc(b1-2)Man(a1-3)[GlcNAc(b1-3)Gal(b1-4)GlcNAc(b1-3)Gal(b1-4)GlcNAc(b1-3)Gal(b1-4)GlcNAc(b1-3)Gal(b1-4)GlcNAc(b1-2)Man(a1-6)]Man(b1-4)GlcNAc(b1-4)GlcNAc
# Procedure, shortened: as §1
# [14] = biological target: GlcNAc(b1-3)Gal(b1-4)GlcNAc(b1-3)Gal(b1-4)GlcNAc(b1-3)Gal(b1-4)GlcNAc(b1-3)Gal(b1-4)GlcNAc(b1-2)Man(a1-3)[GlcNAc(b1-3)Gal(b1-4)GlcNAc(b1-3)Gal(b1-4)GlcNAc(b1-3)Gal(b1-4)GlcNAc(b1-3)Gal(b1-4)GlcNAc(b1-2)Man(a1-6)]Man(b1-4)GlcNAc(b1-4)[Fuc(a1-6)]GlcNAc
# Procedure, shortened: as §1
# [15] = biological target: GlcNAc(b1-3)Gal(b1-4)GlcNAc(b1-3)Gal(b1-4)GlcNAc(b1-3)Gal(b1-4)GlcNAc(b1-3)Gal(b1-4)GlcNAc(b1-2)[GlcNAc(b1-3)Gal(b1-4)GlcNAc(b1-3)Gal(b1-4)GlcNAc(b1-3)Gal(b1-4)GlcNAc(b1-3)Gal(b1-4)GlcNAc(b1-6)]Man(a1-6)[GlcNAc(b1-3)Gal(b1-4)GlcNAc(b1-3)Gal(b1-4)GlcNAc(b1-3)Gal(b1-4)GlcNAc(b1-3)Gal(b1-4)GlcNAc(b1-2)Man(a1-3)]Man(b1-4)GlcNAc(b1-4)[Fuc(a1-6)]GlcNAc
# Procedure, shortened: as §1
# [16] = biological target: GlcNAc(b1-3)Gal(b1-4)GlcNAc(b1-3)Gal(b1-4)GlcNAc(b1-3)GalNAc
# Procedure, shortened: as §1
# [17] = biological target: GlcNAc(b1-3)Gal(b1-4)GlcNAc(b1-3)GalNAc
# Procedure, shortened: as §1
# [18] = biological target: GlcNAc(b1-3)Gal(b1-4)GlcNAc(b1-3)[GlcNAc(b1-3)Gal(b1-4)GlcNAc(b1-3)]GalNAc
# Procedure, shortened: as §1
# [19] = biological target: GlcNAc(b1-3)Gal(b1-4)GlcNAc(b1-6)[Gal(b1-3)]GalNAc
# Procedure, shortened: as §1
# [20] = biological target: GlcNAc(b1-3)Gal(b1-4)GlcNAc(b1-6)[GlcNAc(b1-3)Gal(b1-3)]GalNAc
# Procedure, shortened: as §1
# [21] = biological target: GlcNAc(b1-3)Gal(b1-4)GlcNAc(b1-6)[GlcNAc(b1-3)]Gal(b1-4)GlcNAc
# Procedure, shortened: as §1
# GlcNAc(b1-3)GalNAc = biological target: GlcNAc(b1-3)GalNAc
# Procedure, shortened: as §1
# GlcNAc(b1-3)Man = biological target: GlcNAc(b1-3)Man
# Procedure, shortened: as §1
# [22] = biological target: GlcNAc(b1-3)[GlcNAc(b1-4)][GlcNAc(b1-6)]GlcNAc
# Procedure, shortened: as §1
# [23] = biological target: GlcNAc(b1-3)[GlcNAc(b1-6)]Gal(b1-4)GlcNAc
# Procedure, shortened: as §1
# [24] = biological target: GlcNAc(b1-3)[GlcNAc(b1-6)]GalNAc
# Procedure, shortened: as §1
# [25] = biological target: GlcNAc(b1-4)Gal(b1-4)GlcNAc
# Procedure, shortened: as §1
# GlcNAc(b1-4)GlcNAc = biological target: GlcNAc(b1-4)GlcNAc
# Procedure, shortened: as §1
# [26] = biological target: GlcNAc(b1-4)GlcNAc(b1-4)GlcNAc
# Procedure, shortened: as §1
# [27] = biological target: GlcNAc(b1-4)GlcNAc(b1-4)GlcNAc(b1-4)GlcNAc(b1-4)GlcNAc
# Procedure, shortened: as §1
# [28] = biological target: GlcNAc(b1-4)GlcNAc(b1-4)GlcNAc(b1-4)GlcNAc(b1-4)GlcNAc(b1-4)GlcNAc
# Procedure, shortened: as §1
# [29] = biological target: GlcNAc(b1-4)[GlcNAc(b1-6)]GalNAc
# Procedure, shortened: as §1
# [30] = biological target: GlcNAc(b1-6)Gal(b1-4)GlcNAc
# Procedure, shortened: as §1
# GlcNAc(b1-6)GalNAc = biological target: GlcNAc(b1-6)GalNAc
# Procedure, shortened: as §1
# [31] = biological target: GlcNAc6S(b1-3)Gal(b1-4)GlcNAc
# Procedure, shortened: as §1
# Kdn(a2-3)Gal(b1-3)GalNAc = biological target: Kdn(a2-3)Gal(b1-3)GalNAc
# Procedure, shortened: as §1
# Kdn(a2-3)Gal(b1-3)GlcNAc = biological target: Kdn(a2-3)Gal(b1-3)GlcNAc
# Procedure, shortened: as §1
# Kdn(a2-3)Gal(b1-4)Glc = biological target: Kdn(a2-3)Gal(b1-4)Glc
# Procedure, shortened: as §1
# Kdn(a2-3)Gal(b1-4)GlcNAc = biological target: Kdn(a2-3)Gal(b1-4)GlcNAc
# Procedure, shortened: as §1
# [32] = biological target: Kdn(a2-3)Gal(b1-4)[Fuc(a1-3)]GlcNAc
# Procedure, shortened: as §1
# Kdn(a2-6)Gal(b1-4)GlcNAc = biological target: Kdn(a2-6)Gal(b1-4)GlcNAc
# Procedure, shortened: as §1
# [33] = biological target: Man(a1-2)Man(a1-2)Man(a1-3)Man
# Procedure, shortened: as §1
# [34] = biological target: Man(a1-2)Man(a1-2)Man(a1-6)[Man(a1-3)]Man
# Procedure, shortened: as §1
# Man(a1-2)Man(a1-3)Man = biological target: Man(a1-2)Man(a1-3)Man
# Procedure, shortened: as §1
binder,measurement,setting,value
Mg1lysM (Mycosphaerella graminicola) (protein) QRNPITITPQFDCGATNSQQYVARSGDTLTKIAQEIYHDVVGVCDIARANNLADPNRIDAGTPYTIPINCQTYDRNSCL,glycan array binding signal (z-score),[1],-0.066
same,glycan array binding signal (z-score),GlcNAc(b1-3)Gal(b1-4)Glc,-0.066
same,glycan array binding signal (z-score),[2],-0.08
same,glycan array binding signal (z-score),[3],-0.085
same,glycan array binding signal (z-score),[4],-0.067
same,glycan array binding signal (z-score),[5],-0.06
same,glycan array binding signal (z-score),[6],-0.069
same,glycan array binding signal (z-score),[7],-0.062
same,glycan array binding signal (z-score),[8],-0.049
same,glycan array binding signal (z-score),[9],-0.049
same,glycan array binding signal (z-score),[10],-0.071
same,glycan array binding signal (z-score),[11],-0.081
same,glycan array binding signal (z-score),[12],-0.052
same,glycan array binding signal (z-score),[13],-0.065
same,glycan array binding signal (z-score),[14],-0.063
same,glycan array binding signal (z-score),[15],-0.011
same,glycan array binding signal (z-score),[16],-0.058
same,glycan array binding signal (z-score),[17],-0.07
same,glycan array binding signal (z-score),[18],-0.078
same,glycan array binding signal (z-score),[19],-0.077
same,glycan array binding signal (z-score),[20],-0.06
same,glycan array binding signal (z-score),[21],-0.049
same,glycan array binding signal (z-score),GlcNAc(b1-3)GalNAc,-0.073
same,glycan array binding signal (z-score),GlcNAc(b1-3)Man,-0.057
same,glycan array binding signal (z-score),[22],-0.058
same,glycan array binding signal (z-score),[23],-0.072
same,glycan array binding signal (z-score),[24],-0.075
same,glycan array binding signal (z-score),[25],-0.09
same,glycan array binding signal (z-score),GlcNAc(b1-4)GlcNAc,-0.072
same,glycan array binding signal (z-score),[26],16.5
same,glycan array binding signal (z-score),[27],11.9
same,glycan array binding signal (z-score),[28],7.47
same,glycan array binding signal (z-score),[29],-0.048
same,glycan array binding signal (z-score),[30],-0.073
same,glycan array binding signal (z-score),GlcNAc(b1-6)GalNAc,-0.003
same,glycan array binding signal (z-score),[31],-0.081
same,glycan array binding signal (z-score),Kdn(a2-3)Gal(b1-3)GalNAc,-0.057
same,glycan array binding signal (z-score),Kdn(a2-3)Gal(b1-3)GlcNAc,-0.072
same,glycan array binding signal (z-score),Kdn(a2-3)Gal(b1-4)Glc,-0.086
same,glycan array binding signal (z-score),Kdn(a2-3)Gal(b1-4)GlcNAc,-0.058
same,glycan array binding signal (z-score),[32],-0.081
same,glycan array binding signal (z-score),Kdn(a2-6)Gal(b1-4)GlcNAc,-0.085
same,glycan array binding signal (z-score),[33],-0.082
same,glycan array binding signal (z-score),[34],-0.051
same,glycan array binding signal (z-score),Man(a1-2)Man(a1-3)Man,-0.046
